# The BET-seq Pho4 binding data (Le et al. 2018)
# This is one part of the list. The energies were worked out here from pooled read counts, against the library average; single values are noisy.
# Molecular target: T1, Pho4 (S. cerevisiae) (UniProt P07270)
# T1 sequence: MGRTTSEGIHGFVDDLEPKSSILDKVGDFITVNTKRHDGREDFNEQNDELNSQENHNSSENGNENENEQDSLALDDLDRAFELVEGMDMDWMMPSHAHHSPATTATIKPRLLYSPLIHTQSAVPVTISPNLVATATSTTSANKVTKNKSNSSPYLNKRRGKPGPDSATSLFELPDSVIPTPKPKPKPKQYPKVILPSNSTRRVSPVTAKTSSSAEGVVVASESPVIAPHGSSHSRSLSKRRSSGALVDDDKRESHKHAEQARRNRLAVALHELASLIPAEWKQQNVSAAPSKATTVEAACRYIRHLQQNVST
# Test: relative binding free energy (BET-seq); higher = weaker binding
# Details: reference: library average
row,Sequence,relative binding free energy
1,TGTATCACGTGTTCGT,0.03 kcal/mol
2,TTATACACGTGTGAAG,-0.05 kcal/mol
3,AGTCGCACGTGAGTTA,0.18 kcal/mol
4,ATTATCACGTGGTTGA,0.06 kcal/mol
5,AGCGCCACGTGGGTAG,-0.2 kcal/mol
6,ATAAGCACGTGTAAAT,0.24 kcal/mol
7,TTTTCCACGTGATGTT,0.27 kcal/mol
8,TTGCGCACGTGGTATG,-0.29 kcal/mol
9,TTTAACACGTGGCGGT,-0.06 kcal/mol
10,GGTTGCACGTGGATCT,-0.02 kcal/mol
11,ATTTGCACGTGTGAGG,0.17 kcal/mol
12,ATTTTCACGTGTGTGC,0.3 kcal/mol
13,CGGATCACGTGGTATG,0.02 kcal/mol
14,CAGGGCACGTGAATGT,0.08 kcal/mol
15,AAAAACACGTGTAGGG,0.2 kcal/mol
16,TATTCCACGTGGGGTT,0 kcal/mol
17,GATGCCACGTGATTGG,0.22 kcal/mol
18,ATGCGCACGTGGGGTG,-0.33 kcal/mol
19,AAGATCACGTGGGGTT,0.1 kcal/mol
20,AGTTTCACGTGATGAA,0.2 kcal/mol
21,ATGCGCACGTGAGGCT,0.05 kcal/mol
22,TATCGCACGTGAAGGG,0.35 kcal/mol
23,TGTAGCACGTGATCTG,0.05 kcal/mol

row,Sequence,relative binding free energy
1,TTTCACACGTGGTGTG,-0.04 kcal/mol
2,TTATACACGTGTGGGC,0.12 kcal/mol
3,ATTTGCACGTGAAGGG,0.26 kcal/mol
4,GTGTGCACGTGTCTGT,-0.03 kcal/mol
5,TGTGTCACGTGTCGTG,0.1 kcal/mol
6,GCGCGCACGTGTGTGT,-0.08 kcal/mol
7,TGCGGCACGTGGCTGG,-0.11 kcal/mol
8,CAAGTCACGTGTTGAG,0.16 kcal/mol
9,TCAGTCACGTGTGTTT,0.13 kcal/mol
10,TTGAGCACGTGCGGTC,-0.11 kcal/mol
11,GGTGGCACGTGAGGAC,0.23 kcal/mol
12,TCGAGCACGTGGGGTC,-0.09 kcal/mol
13,AAGGTCACGTGTTTCG,0.07 kcal/mol
14,TCGCGCACGTGGTAGG,-0.31 kcal/mol
15,TGTGACACGTGGTTGT,-0.02 kcal/mol
16,CGAGGCACGTGGCGGG,-0.05 kcal/mol
17,CTAGCCACGTGGTTGG,-0.09 kcal/mol
18,TGAGGCACGTGAGATT,0.16 kcal/mol
19,TTAATCACGTGCTTGT,0.12 kcal/mol
20,GTTTACACGTGGATAA,0.24 kcal/mol
21,GTGAGCACGTGGGCGT,-0.14 kcal/mol
22,ATAGTCACGTGTTAGT,0.17 kcal/mol
23,CTTTTCACGTGGCTTA,0.33 kcal/mol

row,Sequence,relative binding free energy
1,GTCTCCACGTGGTGTG,0.11 kcal/mol
2,TTGTGCACGTGAAAGT,0.24 kcal/mol
3,AGTTACACGTGTAAGA,0.15 kcal/mol
4,CGTGGCACGTGAGTGT,0.13 kcal/mol
5,TCAGACACGTGGGTGG,-0.15 kcal/mol
6,TCTGTCACGTGTCTTG,0.16 kcal/mol
7,TTAGGCACGTGTTAAA,-0.14 kcal/mol
8,GTCGACACGTGAGGTA,0.27 kcal/mol
9,AGGCCCACGTGGGGTT,-0.2 kcal/mol
10,TAGAGCACGTGTGTAG,-0.07 kcal/mol
11,CAGGGCACGTGGCTGT,-0.16 kcal/mol
12,GTGGCCACGTGTCGGT,0.11 kcal/mol
13,GGGCTCACGTGGGGTT,0.1 kcal/mol
14,GGTTACACGTGTATGC,0.08 kcal/mol
15,GTTAACACGTGCAGTT,0.04 kcal/mol
16,AGGGTCACGTGGGTAA,0 kcal/mol
17,CGGTGCACGTGCGAGT,0 kcal/mol
18,GAGGACACGTGTGTGC,0.04 kcal/mol
19,GGATACACGTGGCAGG,0.04 kcal/mol
20,TTTAGCACGTGATTAT,-0.01 kcal/mol
21,TATGGCACGTGTATGC,-0.06 kcal/mol
22,GTTGCCACGTGTGTCG,-0.01 kcal/mol
23,TGGTGCACGTGGGTGG,-0.12 kcal/mol

row,Sequence,relative binding free energy
1,AATGACACGTGTGGAG,0.11 kcal/mol
2,ATTTGCACGTGGAAGG,0.17 kcal/mol
3,TTTCCCACGTGGTGTG,-0.23 kcal/mol
4,TTGTGCACGTGAAGTT,0.29 kcal/mol
5,GGTTGCACGTGAGCGG,0.23 kcal/mol
6,GGTACCACGTGAGGTT,0.29 kcal/mol
7,TTATTCACGTGGGTTG,0.15 kcal/mol
8,GTTTACACGTGTTGAG,0.29 kcal/mol
9,GAGCGCACGTGTGGGA,0.03 kcal/mol
10,TGTAGCACGTGGGCAA,-0.12 kcal/mol
11,AGGGGCACGTGGCCAG,-0.18 kcal/mol
12,CGCGGCACGTGAGTGT,0.16 kcal/mol
13,GATAGCACGTGGTATG,-0.08 kcal/mol
14,GGTATCACGTGCGCGG,0.02 kcal/mol
15,GATGACACGTGTTGGC,0.1 kcal/mol
16,TTCGTCACGTGCGTAT,0.11 kcal/mol
17,TTGCACACGTGGAGTT,0.03 kcal/mol
18,ATCGTCACGTGAGGGG,0.15 kcal/mol
19,AGGTGCACGTGTTAGC,-0.1 kcal/mol
20,GGCTGCACGTGATGGG,0.19 kcal/mol
21,AGGACCACGTGGGGTT,-0.28 kcal/mol
22,ATTAGCACGTGGAGAT,0.06 kcal/mol
23,AAGTTCACGTGTGCTA,0.27 kcal/mol

row,Sequence,relative binding free energy
1,AGTGTCACGTGTTATC,0.14 kcal/mol
2,AGATACACGTGGGGCG,-0.02 kcal/mol
3,TGTAACACGTGGGAGG,-0.01 kcal/mol
4,GGTGTCACGTGTCCTT,0.24 kcal/mol
5,CGTGTCACGTGCGATG,0.08 kcal/mol
6,GATAGCACGTGTGTGA,-0.01 kcal/mol
7,GATGGCACGTGGTTGG,-0.12 kcal/mol
8,TGTGGCACGTGGCCTG,-0.25 kcal/mol
9,TATCTCACGTGTATAT,0.2 kcal/mol
10,CGTTTCACGTGTGAGT,0.42 kcal/mol
11,ATGGGCACGTGTGAGA,-0.01 kcal/mol
12,GGGAGCACGTGAGGTC,0.29 kcal/mol
13,ATAAGCACGTGGGTTG,-0.32 kcal/mol
14,CGTTTCACGTGGTCGT,0.08 kcal/mol
15,CTGTGCACGTGGCGTG,-0.17 kcal/mol
16,TTAGCCACGTGGTATG,-0.28 kcal/mol
17,CCGTTCACGTGGAGTT,0.4 kcal/mol
18,CGGGTCACGTGTGTTT,0.1 kcal/mol
19,CTGGTCACGTGGTTTG,0.12 kcal/mol
20,TTATTCACGTGGAGGC,0.26 kcal/mol
21,GTTGACACGTGTATCT,0.14 kcal/mol
22,TGAAACACGTGATTGG,0.29 kcal/mol
23,TATGGCACGTGTAAGA,0.08 kcal/mol
